According to paper PMC4336329 (PLoS ONE, 2015):
In all, about 310,000 compounds went through this assay and about 14,000 (4.5%) showed an effect of 50% or more. Effects have a minus sign here. The list shows a part of the results.

target: human ether-à-go-go-related gene (hERG) potassium channel (human, UniProt Q12809); test: primary screen, population patch clamp on CHO cells stably expressing hERG
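Also: peak tail current of the secondary pulse compared with the same well before compound.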

human ether-à-go-go-related gene (hERG) potassium channel, sequence (Q12809 whole entry, looked up): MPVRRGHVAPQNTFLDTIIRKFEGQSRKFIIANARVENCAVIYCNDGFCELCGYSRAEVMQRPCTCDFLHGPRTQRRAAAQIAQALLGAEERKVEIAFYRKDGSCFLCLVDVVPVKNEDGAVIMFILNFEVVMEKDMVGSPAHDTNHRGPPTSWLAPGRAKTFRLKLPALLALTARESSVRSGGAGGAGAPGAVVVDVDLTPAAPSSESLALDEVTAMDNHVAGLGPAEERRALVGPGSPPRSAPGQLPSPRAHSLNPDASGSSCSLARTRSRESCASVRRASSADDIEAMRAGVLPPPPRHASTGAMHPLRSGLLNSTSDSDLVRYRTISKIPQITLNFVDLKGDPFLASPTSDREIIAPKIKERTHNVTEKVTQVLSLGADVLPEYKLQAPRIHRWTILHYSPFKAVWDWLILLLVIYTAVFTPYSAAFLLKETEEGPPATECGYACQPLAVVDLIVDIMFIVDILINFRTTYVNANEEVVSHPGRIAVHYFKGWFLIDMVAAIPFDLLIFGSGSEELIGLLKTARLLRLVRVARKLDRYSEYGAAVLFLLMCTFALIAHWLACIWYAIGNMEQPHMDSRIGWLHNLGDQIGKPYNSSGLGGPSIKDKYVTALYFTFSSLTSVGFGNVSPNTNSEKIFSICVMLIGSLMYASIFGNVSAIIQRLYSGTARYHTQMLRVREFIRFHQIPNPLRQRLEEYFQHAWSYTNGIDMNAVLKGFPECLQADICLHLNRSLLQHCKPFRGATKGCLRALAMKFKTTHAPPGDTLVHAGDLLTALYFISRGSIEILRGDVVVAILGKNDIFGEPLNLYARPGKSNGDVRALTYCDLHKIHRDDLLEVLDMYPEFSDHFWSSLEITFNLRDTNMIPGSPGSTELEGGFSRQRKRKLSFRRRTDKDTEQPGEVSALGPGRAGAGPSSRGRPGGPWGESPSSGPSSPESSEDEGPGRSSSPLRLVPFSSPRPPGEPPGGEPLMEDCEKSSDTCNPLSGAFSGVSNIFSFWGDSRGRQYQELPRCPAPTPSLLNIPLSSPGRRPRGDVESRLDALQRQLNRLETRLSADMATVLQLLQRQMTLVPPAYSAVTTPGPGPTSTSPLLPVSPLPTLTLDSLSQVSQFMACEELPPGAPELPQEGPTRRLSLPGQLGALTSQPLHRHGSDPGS

| Structure (SMILES) | hERG current change (%, negative = inhibition) at 10uM |
| --- | --- |
| O=C(CSc1nnc(SCc2ccc(F)cc2)s1)Nc1ccc(C(=O)O)cc1 | 18.6% |
| Oc1ccc(C[C@@H]2CNC(=S)N2CCCCC2CCCCC2)cc1 | 14.3% |
| CCCn1cc(S(=O)(=O)c2ccccc2)c(=O)c2cc(F)c(N3CCN(C)CC3)cc21 | -8.34% |
| O=c1[nH]c2sc3c(c2c2nncn12)CCCC3 | 1.69% |
| CCOC(=O)COc1ccccc1/C=C\[N+](=O)[O-] | -2.07% |
| COC(=O)c1ccc(NC(=O)Cc2ccc(F)cc2)cc1 | 30.6% |
| COc1cc2ccccc2cc1C(=O)Nc1ccc(N2CCN(C(=O)C(C)C)CC2)cc1 | 16.3% |
| CCC1(CC)NC(=O)N(CC(=O)Nc2ccc(S(=O)(=O)N3CCOCC3)cc2)C1=O | -2.22% |
| O=C(CSc1nc2ccccc2[nH]1)NCC1CCCO1 (stereo not drawn) | 13.6% |
| O=C(Nc1ccc(Cl)cc1)NC1CCS(=O)(=O)C1 (stereo not drawn) | -8.68% |
| O=C(Nc1ccc(F)c(Cl)c1)Nc1csc2ccccc12 | 20.2% |
| CCCC(=O)Nc1sc(C(=O)Nc2cccc(N)c2)c(C)c1C(=O)OC | -2.58% |
| Cl.OCc1cnc[nH]1 | 13.2% |
| COc1ccc(NC(=S)N2CCC(N(C)CCN3CCOCC3)CC2)cc1Cl | -26.8% |
| COc1cccc(-c2noc(C3CCCN(C(=O)c4cccc(F)c4)C3)n2)c1 (stereo not drawn) | 0.0519% |
| CCN(CC)S(=O)(=O)c1cccc(NC(=O)CC2CCCC2)c1 | 2.44% |
| COc1ccc(OC)c(S(=O)(=O)NCC(=O)NC2CCCCCC2)c1 | 6.71% |
| Cc1nc2ccccc2nc1CN1CCC(CO)(CC2CCCCO2)CC1 (stereo not drawn) | -18.9% |
| CCCNC(=O)c1c(N)n(Cc2ccc3c(c2)OCO3)c2nc3ccccc3nc12 | -1.61% |

| Structure (SMILES) | hERG current change (%, negative = inhibition) at 10uM |
| --- | --- |
| CC(C)CN(CC(C)C)S(=O)(=O)c1cc([N+](=O)[O-])ccc1N1CCCCCC1 | 12.9% |
| CC(C)c1ccc(NS(=O)(=O)c2ccc3c(c2)oc(=O)n3C)cc1 | 26.2% |
| CCN1C(=O)CC(Sc2ccccc2N)C1=O (stereo not drawn) | 16.5% |
| COc1ccc(C2NC3=C(CCC3)C3(C#N)C4(N=C(N)C23C#N)OCCO4)cc1 (stereo not drawn) | 0.97% |
| O=C(NCCC1CCCCN1S(=O)(=O)c1ccc(F)cc1)C(=O)Nc1ccccc1F (stereo not drawn) | 20.9% |
| COC(=O)c1cc(O)cc(OC)c1Oc1cc(C)cc(O)c1C(=O)O | 13.8% |
| COc1ccc(S(=O)(=O)N2CCOCC2)cc1NC(=O)c1sccc1C | -3.22% |
| COc1ccc(S(=O)(=O)N2CCCC(C(=O)NCc3ccccc3)C2)cc1 (stereo not drawn) | 23.7% |
| Cc1cc(S(=O)(=O)N(Cc2cccs2)Cc2ccccc2F)ccc1-n1cnnn1 | 5.72% |
| O=C(Nc1ccc(Cl)cc1C(=O)O)c1ccc2c(c1)C(=O)N(Cc1ccco1)C2=O | 16.7% |
| S=C(Nc1cccc(Cl)c1Cl)N1CCC2(CC1)OCCO2 | 17.9% |
| COc1ccc(Cl)cc1NC(=O)COC(=O)C1COc2ccccc2O1 (stereo not drawn) | 1.85% |
| Cc1c(CN2CCC(CO)(Cc3ccccc3)CC2)c2ccccc2n1C | -37.8% |
| O=C(CSc1nnc(N2CCOCC2)n1-c1cccc(F)c1)N1CCN(c2ccccn2)CC1 | 1.21% |
| Nc1cccc(-c2nc3ccccc3s2)c1 | -1.67% |
| Cc1ccc2nc(SCC(=O)Nc3ccc(Br)cc3)nc(=O)n2c1 | -4.8% |
| Cc1ccc(NC(=O)Nc2cnc3ccccc3c2)cc1 | 7.04% |
| COc1cc(OC)cc(N(C(=O)CNC(=O)c2ccco2)C(C(=O)NCC2CCCO2)c2ccccc2)c1 (stereo not drawn) | 5.77% |
| CCOc1ccccc1OCCCC(=O)Nc1cccc(S(=O)(=O)N2CCOCC2)c1 | -16% |

| Structure (SMILES) | hERG current change (%, negative = inhibition) at 10uM |
| --- | --- |
| CC(=O)c1c(C)[nH]c(C(=O)N(C)C(c2ccccc2)c2ccccc2)c1C | 3.63% |
| Cc1n[nH]c(C)c1CS(=O)(=O)c1ccccc1 | 22.3% |
| Nc1ncnc2c1cnn2-c1ccccc1 | 2.88% |
| CCOc1ncccc1C(=O)Nc1cccc(C(=O)Nc2cccc(S(=O)(=O)CCO)c2)c1 | -15.5% |
| COc1ccc(CNc2nc3nc(C)c(Cl)c(C)n3n2)cc1 | 2.05% |
| CC(C)c1ccc(Nc2nc(Cl)nc(NCc3ccco3)n2)cc1 | 4.18% |
| CC1CC(C)CN(C(=O)COC(=O)c2ccc[nH]c2=O)C1 (stereo not drawn) | 0.743% |
| Cc1cccc(/C=C/c2onc(C)c2S(=O)(=O)N2CCC(C(=O)N3CCCCCC3)CC2)c1 | 7.22% |
| COc1cccc(-c2nc(CS(=O)(=O)CC(=O)N3CCc4ccccc4C3)c(C)o2)c1 | -26.2% |
| CC(=O)c1cccc(-n2c(CCC(=O)O)ccc2-c2cccs2)c1 | -4.11% |
| Cc1ccc(C(=O)/C=C/c2ccc3c(c2)OCO3)o1 | 0.363% |
| Cc1cccc(NC(=O)C(=O)NCCCc2ccccc2)c1 | 6.38% |
| Cc1cc(OC(=O)CNC(=O)OC(C)(C)C)c2c(C)cc(=O)oc2c1 | -9.87% |
| CCC(=O)Nc1nc(-c2ccccc2)ns1 | -15.3% |
| Cc1nc2c(c(=O)n1CCC1=CCCCC1)c1nc3ccccc3nc1n2/N=C/c1ccccc1 | -2.97% |
| O=[N+]([O-])c1cccnc1N1CCC(c2cc(-c3ccc(Cl)cc3)n[nH]2)CC1 | -9.69% |
| O=C1NC(=S)NC(=O)C1=Cc1ccc(OCC(=O)N2CCCC2)cc1 | 20.4% |
| CCOC(=O)C1CCN(Cc2c(O)ccc3ccccc23)CC1 | -22.2% |
| Cc1ccc2nc(-c3ccc(SCC(=O)Nc4cc(C)on4)nc3)[nH]c2c1 | 3.44% |
